PubChem BioAssay AID463173 (ICCB-Longwood Screening Facility, Harvard Medical School, 2010)
About 4,300 (8.3%) of roughly 52,000 compounds were called active. No stated cut-off is given here; in the data, active means survival mostly below about 52% (no sharp cut-off); inactive means mostly above about 56%. The list shows a part of the results.

The compounds below were run on DeltatarO mutant (assay: S. aureus survival, RN4220 and DeltatarO strains – OD600, teichoic acid synthesis inhibitors, primary screen (AID 463173)). Settings: S. aureus RN4220 wild type/DeltatarO growth, OD600, 18 h, hits give low values, screened at 18.75 µg/mL (by protocol).

| Structure (SMILES) | survival |
| --- | --- |
| CCc1ccc(S(=O)(=O)c2cn(C)c3cc(N4CCC(C)CC4)c(F)cc3c2=O)cc1 | inactive: 78% |
| Cc1cc(C)cc(NC(=O)CN2C(=O)c3ccccc3Sc3ncccc32)c1 | inactive: 90% |
| CCCCN(CC)CCCNC(=O)c1cc2c(=O)[nH]c3ccccc3c2s1 | inactive: 151% |
| COc1ccc(CNC(=O)c2ccc3c(c2)nc2n3CCOC2)c(OC)c1 | inactive: 70% |
| Cc1ccc(CN(Cc2ccco2)C(=O)COc2ccc(C(C)C)cc2)cc1 | inactive: 89% |
| CCOc1ccc(CCNC(=O)CN2N=C(c3ccccc3)CCC2=O)cc1OCC | inactive: 88% |
| Cc1cccc(N2CCN(c3cccc(C)c3)C2c2cccnc2)c1 | inactive: 107% |
| CC(=O)c1ccc(NC(=O)CSc2nc(-c3cccc(F)c3)nc3c2c(=O)n(C)c(=O)n3C)cc1 | inactive: 74% |
| CCOC(=O)c1cnc2c(CC)cccc2c1NCCO | inactive: 95% |
| CCC(=O)C1=C(c2cccc(OC)c2)N(C(=O)CC)n2c(nnc2C2CCCCC2)S1 | inactive: 60% |
| COc1cccc(NC(=O)C2CCN(c3nn4cc(-c5ccc(F)cc5)nc4s3)CC2)c1 | inactive: 73% |
| Cc1cccc(C)c1OCc1nc2c3c(-c4ccccc4)c(-c4ccccc4)oc3ncn2n1 | inactive: 68% |
| Cc1ccc(NC(=O)Cn2c(=O)oc3cc(S(=O)(=O)NCc4ccccc4)ccc32)cc1 | inactive: 71% |
| CCn1cc(C(=O)N2CCN(c3ccc(C(C)=O)cc3)CC2)c2cc(OC)c(OC)cc2c1=O | inactive: 164% |
| Cc1ccc(-c2cc(C(F)(F)F)c(C#N)c(SCC(=O)Nc3ccccc3)n2)cc1 | active: 53% |
| O=C1c2ccc(-c3ccc4c(c3)C(=O)N(CCO)C4=O)cc2C(=O)N1CCO | inactive: 87% |
| CCOc1cccc(C2c3c(-c4cc(C)ccc4O)n[nH]c3C(=O)N2Cc2ccco2)c1 (centres undefined) | active: 8% |
| Cc1ccc(CNC(=O)c2cc3c(=O)n(Cc4cccnc4)ccc3nc2C)cc1 | inactive: 93% |
| CCOC(=O)C(C)NC(=O)c1c(C)oc2ncn(CC(C)C)c(=O)c12 (centres undefined) | inactive: 84% |
| CCOC(=O)C1CCN(C(=O)c2ccc3c(=O)n4nc(Nc5cc(C)ccc5C)sc4nc3c2)CC1 | inactive: 84% |
| COc1ccc(OC)c(CCNC(=O)c2csc3c2CCCCC3)c1 | active: 44% |
| O=C(Cn1c(=O)n(-c2ccccc2Cl)c(=O)c2sc3ccccc3c21)NC1CCCCC1 | inactive: 109% |
| N#Cc1cccc(NC(=O)C2CCN(S(=O)(=O)c3ccc4[nH]c(=O)ccc4c3)CC2)c1 | inactive: 75% |

| Structure (SMILES) | survival |
| --- | --- |
| Cc1ccccc1-n1nc(CO)c(C(=O)NCc2cccs2)n1 | inactive: 79% |
| Cc1ccc(CN2CCN(CC(=O)Nc3ccc(C)c(C)c3)S2(=O)=O)cc1 | inactive: 88% |
| Cc1c(NC(=O)c2nc3ccccc3nc2N2CCCCC2)cccc1[N+](=O)[O-] | inactive: 100% |
| Cc1ccccc1OC(=O)CSc1nnc(-c2ccc(F)cc2)o1 | inactive: 63% |
| Cc1cccc2c1-c1sc(C(=O)N(C)c3cccc(C(F)(F)F)c3)cc1CO2 | inactive: 52% |
| Cc1csc2nc(COc3ccccc3NC(=O)c3ccc(C(C)(C)C)cc3)cc(=O)n12 | inactive: 88% |
| CC(=O)C1=C(c2ccc(C)c(C)c2)N(C(C)=O)n2c(nnc2-c2ccc(Cl)cc2)S1 | inactive: 124% |
| CC(=O)Nc1cc(-n2cnnn2)ccc1C | inactive: 75% |
| CCNC(=O)c1nn(-c2ccccc2C)nc1CO | inactive: 106% |
| CCNC(=S)N1CCC(NC(=O)c2ccccc2)CC1 | inactive: 110% |
| Cc1ccc(OCC(=O)N2CCC(C)CC2)cc1C | inactive: 71% |
| Cc1ccc(C(=O)Nc2ccc(-c3nc4ccccc4s3)cc2C)cc1C | inactive: 55% |
| COC(=O)c1ccccc1NC(=O)Nc1nnc(N2CCC(C)CC2)s1 | inactive: 90% |
| CCOc1cc(CNC(=O)NC2COc3ccc(OC)cc3C2)cc(OCC)c1OCC (centres undefined) | inactive: 69% |
| COc1ccc(N2CC(NC(=O)CCCc3ccccc3)CC2=O)cc1 (centres undefined) | active: 32% |
| CCOC(=O)c1cc(C)n(CC2CCC(C(=O)Nc3ccc(C)c(F)c3)CC2)c1C (centres undefined) | inactive: 64% |
| O=C(O)c1cc2n(n1)C(C(F)(F)F)CC(C1CC1)N2 (centres undefined) | inactive: 91% |
| Fc1ccccc1Cn1c(-c2ccccc2)nc2ccccc21 | active: 1% |
| COCCCNC(=O)CSc1nc2c(sc3ccccc32)c(=O)n1CCCC(=O)NCCOC | inactive: 88% |
| Cc1ccccc1OCc1nnc(SCc2cc(=O)c3cccc(F)c3[nH]2)n1C | inactive: 78% |
| CC(=O)c1ccc(NC(=O)COCc2cc(-c3ccco3)on2)cc1 | inactive: 131% |
| Cc1ccc(C)c(CSc2nc3ccncc3n2CC(=O)Nc2ccc(N(C)C)cc2)c1 | inactive: 75% |
| Cc1cccc2nc(-c3cccc(NS(=O)(=O)c4ccccc4)c3)cn12 | active: 35% |

| Structure (SMILES) | survival |
| --- | --- |
| CCC(C)NC(=O)CSc1nc2c(sc3ccccc32)c(=O)n1Cc1ccccc1Cl (centres undefined) | inactive: 87% |
| Clc1ccccc1CNc1ncnc2c1c(-c1ccccc1)cn2-c1ccccc1 | inactive: 88% |
| Cc1cc(C)c(NC(=O)Nc2ccc3snnc3c2)c(C)c1 | inactive: 118% |
| Cc1ccc(C)c(Cn2c3ccccc3c3cnn(CC(=O)NCc4ccccc4)c(=O)c32)c1 | inactive: 93% |
| Cc1ccc(NC(=O)CSc2nc(-c3ccco3)nc3cc(=O)[nH]n23)cc1C | inactive: 135% |
| COc1ccc2nc(NC(=O)c3nc(S(=O)(=O)Cc4cccc(C)c4)ncc3Cl)sc2c1 | inactive: 49% |
| Cc1cc(NC(=O)C2CCN(S(=O)(=O)c3ccc4[nH]c(=O)oc4c3)CC2)ccc1Br | inactive: 115% |
| CCC1CCCCN1CCCNC(=O)CN1C(=O)CSc2ccc(S(=O)(=O)N3CCOCC3)cc21 (centres undefined) | inactive: 70% |
| CCOC(=O)Cn1nc(C)c(NC(=O)COc2ccc(Cl)cc2C)c1C | inactive: 71% |
| CCOc1ccccc1NC(=O)Cn1ccn(Cc2ccc(C)cc2)c(=O)c1=O | inactive: 78% |
| CCCn1c(SCC(=O)N(C(C)C)C(C)C)nnc1-c1cccnc1 | inactive: 74% |
| Cc1ccc(-c2cc(C(=O)Oc3ccccc3)c3cc(C)ccc3n2)cc1 | inactive: 76% |
| COc1cc2c(cc1OC)CN(C(=O)CCC(=O)O)CC2 | inactive: 102% |
| CC(c1ccccc1)n1cc(C(=O)NCC2COc3ccccc3O2)nn1 (centres undefined) | inactive: 95% |
| COc1ccc2c(c1)c1c(c(=O)n(-c3cccc(Cl)c3)c(=O)n1CC(=O)N1CCCC1)n2C | inactive: 77% |
| Cc1ccc2oc3c(c(=O)c2c1)C1(C(=O)N(C)c2ccccc21)N(CCCO)C3=O (centres undefined) | active: 51% |
| O=C(CCS(=O)(=O)c1cccc2nsnc12)Nc1ccc(F)cc1 | inactive: 53% |
| Cc1ccc(Cl)cc1NC(=O)C(=O)NCC(c1cccnc1)N1CCc2ccccc21 (centres undefined) | inactive: 51% |
| COc1ccc2oc(-c3ccc(C)c(NC(=O)COc4cc(C)cc(C)c4)c3)nc2c1 | active: 43% |
| CCc1ccc(-n2c(=O)c3c4c(sc3n(CC(=O)c3ccc(Cl)cc3)c2=O)CCC4)cc1 | inactive: 142% |
| COc1ccc(/C=C\C(=O)NC2CC(=O)N(c3ccccc3)C2)cc1OC (centres undefined) | inactive: 130% |
| COc1cc(NC(=O)c2nc(-c3ccncc3)no2)cc(OC)c1OC | inactive: 107% |
| Cc1ccc(NC(=O)C(Cc2c[nH]c3ccccc23)NC(=O)OCC(C)C)cc1 (centres undefined) | inactive: 56% |

| Structure (SMILES) | survival |
| --- | --- |
| Cc1ccc(CN(C(=O)COc2c(C)cccc2C)C2CCS(=O)(=O)C2)o1 (centres undefined) | inactive: 110% |
| COC(=O)c1nc2n(n1)C(c1cc(OC)ccc1OC)C(C(=O)Nc1ccc(C)cc1C)=C(C)N2 (centres undefined) | inactive: 79% |
| CCOC(=O)Cc1cc(=O)[nH]c(/N=C(\N)Nc2ccc3ccccc3c2)n1 | inactive: 98% |
| Cc1ccc(Cl)cc1N1CCN(CCNC(=O)Nc2ccccc2Cl)CC1 | inactive: 77% |
| CC(C)(C)C(=O)NCCc1csc2nc(-c3ccc(F)cc3)nn12 | inactive: 90% |
| CCS(=O)(=O)N1CCN(C2CCCCCCC2)CC1 | inactive: 67% |
| COc1cc2[nH]c(=O)n(CCCC(=O)N3CCN(c4cccc(C(F)(F)F)c4)CC3)c(=O)c2cc1OC | inactive: 56% |
| COc1ccc(C(=O)CSc2c(C(C)C)cnc3c2c(=O)n(C)c(=O)n3C)cc1 | inactive: 95% |
| CC(C(=O)NCC1CCCO1)N(C(=O)c1snc(C(N)=O)c1N)c1cccc(F)c1 (centres undefined) | inactive: 67% |
| Cc1ccc(NC(=O)C2CCN(c3cc(C)nc4c(-c5ccc(Cl)cc5)c(C)nn34)CC2)c(C)c1 | inactive: 91% |
| COc1ccccc1N1CCN(C(=O)CN2C(=O)COc3ccc(S(=O)(=O)N4CCC(C)CC4)cc32)CC1 | inactive: 77% |
| Cc1ccn2c(=O)cc(COc3ccc(NC(=O)c4ccccc4F)cc3)nc2c1 | inactive: 100% |
| Cn1ncc2nc(SCC(=O)Nc3ccc(Br)cc3F)n(Cc3ccccc3)c(=O)c21 | active: 29% |
| CCOc1ccc(NC(=O)CSc2nc3c(oc4ccccc43)c(=O)n2CCOC)cc1 | inactive: 74% |
| Cc1ccc(-n2nnc(C(=O)Nc3cc(F)ccc3F)c2C)cc1F | inactive: 108% |
| COc1ccccc1NC(=O)c1sc2nc3c(cc2c1N)CCCCCC3 | inactive: 43% |
| O=C(c1ccccc1)N1c2ncnn2C2(CCCCC2)[C@@H]2CCCC[C@@H]21 | inactive: 83% |
| Cc1ccccc1C(=O)Nc1cc(-c2ccc(Cl)cc2)nn1-c1ccccc1 | inactive: 94% |
| COC(=O)CSc1nc(N)c(C#N)c(-c2ccccc2)c1C#N | inactive: 86% |
| Cc1ccc2c(c1)C(c1ccc(F)cc1)N(C(=O)c1ccc(OC(C)C)cc1)CC(=O)N2 (centres undefined) | inactive: 140% |
